{"source": "the supplement of paper PMC4604168 (melanoma cell lines)", "note": "The list shows a part of the results. Many values rest on one well or one pass, so single values are uncertain.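 Further: cells treated in 1,536-well plates, then fixed and DAPI-stained, with nuclei counted from automated high-throughput microscope images.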", "data": [{"test_system": "SkMel28", "experiment": "cell count relative to DMSO control; melanoma cells; higher = more viable cells", "conditions": "library dose: standard library concentration; 72 h", "units": {"cell count": "%"}, "values": [{"smiles": "C[C@@H](Oc1cc(-c2cnn(C3CCNCC3)c2)cnc1N)c1c(Cl)ccc(F)c1Cl", "note": "[Crizotinib] + Oc1nc(-c2ccc(C(F)(F)F)cc2)nc2c1CSCC2 [XAV939] (first compound 1 µM, partner dose 10 µM)", "cell count": 51.4}, {"smiles": "CS(=O)(=O)CCNCc1ccc(-c2ccc3ncnc(Nc4ccc(OCc5cccc(F)c5)c(Cl)c4)c3c2)o1", "note": "[lapatinib] + O=c1cc(-c2cccc3c2Sc2ccccc2S3)oc(N2CCOCC2)c1 [KU55933] (first compound 4 µM, partner dose 5 µM)", "cell count": 103}, {"smiles": "C=CCNC1=C2C[C@@H](C)C[C@H](OC)[C@H](O)[C@@H](C)/C=C(\\C)[C@H](OC(N)=O)[C@@H](OC)/C=C\\C=C(/C)C(=O)NC(=CC1=O)C2=O", "note": "[Tanespimycin] + CCN(CC)CCCCNc1ncc2cc(-c3cc(OC)cc(OC)c3)c(NC(=O)NC(C)(C)C)nc2n1 [PD173074] (first compound 0.01 µM, partner dose 0.5 µM)", "cell count": 68.7}, {"smiles": "CS(=O)(=O)CCNCc1ccc(-c2ccc3ncnc(Nc4ccc(OCc5cccc(F)c5)c(Cl)c4)c3c2)o1", "note": "[lapatinib] + CCc1ccc(CCOc2ccc(CC3SC(=O)NC3=O)cc2)nc1 [pioglitazone] (first compound 4 µM, partner dose 10 µM)", "cell count": 64.9}, {"smiles": "CN1CCN(c2ccc3nc(-c4c(N)c5c(F)cccc5[nH]c4=O)[nH]c3c2)CC1", "note": "[Dovitinib] + COc1cc(N2CCC(N3CCN(C)CC3)CC2)ccc1Nc1ncc(Cl)c(Nc2ccccc2S(=O)(=O)C(C)C)n1 [NVP-TAE684] (first compound 0.5 µM, partner dose 0.4 µM)", "cell count": 39}, {"smiles": "CS(=O)(=O)CCNCc1ccc(-c2ccc3ncnc(Nc4ccc(OCc5cccc(F)c5)c(Cl)c4)c3c2)o1", "note": "[lapatinib] + COc1ccc2c(c1)CCC1C2CCC2(C)C(NCCCCCCN3C(=O)C=CC3=O)CCC12 [U73122] (first compound 4 µM, partner dose 2 µM)", "cell count": 62.3}, {"smiles": "CNC(=O)c1cc(Oc2ccc(NC(=O)Nc3ccc(Cl)c(C(F)(F)F)c3)cc2)ccn1", "note": "[sorafenib] + CCN(CC)CCCCNc1ncc2cc(-c3cc(OC)cc(OC)c3)c(NC(=O)NC(C)(C)C)nc2n1 [PD173074] (first compound 2 µM, partner dose 0.5 µM)", "cell count": 124}, {"smiles": "C=CCNC1=C2C[C@@H](C)C[C@H](OC)[C@H](O)[C@@H](C)/C=C(\\C)[C@H](OC(N)=O)[C@@H](OC)/C=C\\C=C(/C)C(=O)NC(=CC1=O)C2=O", "note": "[Tanespimycin] + CCCCCCCCCCCC1=C(O)C(=O)C=C(O)C1=O [Embelin] (first compound 0.01 µM, partner dose 6 µM)", "cell count": 45}, {"smiles": "C=CCNC1=C2C[C@@H](C)C[C@H](OC)[C@H](O)[C@@H](C)/C=C(\\C)[C@H](OC(N)=O)[C@@H](OC)/C=C\\C=C(/C)C(=O)NC(=CC1=O)C2=O", "note": "[Tanespimycin] + COc1ccc2c(c1)CCC1C2CCC2(C)C(NCCCCCCN3C(=O)C=CC3=O)CCC12 [U73122] (first compound 0.01 µM, partner dose 2 µM)", "cell count": 83.8}, {"smiles": "CNC(=O)c1cc(Oc2ccc(NC(=O)Nc3ccc(Cl)c(C(F)(F)F)c3)cc2)ccn1", "note": "[sorafenib] + O=C1NC(=O)/C(=C/c2ccc(-c3ccc(F)cc3O)o2)S1 [AS252424] (first compound 2 µM, partner dose 5 µM)", "cell count": 110}, {"smiles": "CN1CCN(c2ccc3nc(-c4c(N)c5c(F)cccc5[nH]c4=O)[nH]c3c2)CC1", "note": "[Dovitinib] + Oc1nc(-c2ccc(C(F)(F)F)cc2)nc2c1CSCC2 [XAV939] (first compound 0.5 µM, partner dose 10 µM)", "cell count": 59.2}, {"smiles": "CS(=O)(=O)CCNCc1ccc(-c2ccc3ncnc(Nc4ccc(OCc5cccc(F)c5)c(Cl)c4)c3c2)o1", "note": "[lapatinib] + CCCCCCCCCCCC1=C(O)C(=O)C=C(O)C1=O [Embelin] (first compound 4 µM, partner dose 6 µM)", "cell count": 51.8}, {"smiles": "CN1CCN(c2ccc3nc(-c4c(N)c5c(F)cccc5[nH]c4=O)[nH]c3c2)CC1", "note": "[Dovitinib] + COc1ccc(-c2ccc3c(N4CCOCC4)nc(N4C[C@@H](C)O[C@@H](C)C4)nc3n2)cc1CO [KU0063794] (first compound 0.5 µM, partner dose 0.1 µM)", "cell count": 62.4}, {"smiles": "C=CCNC1=C2C[C@@H](C)C[C@H](OC)[C@H](O)[C@@H](C)/C=C(\\C)[C@H](OC(N)=O)[C@@H](OC)/C=C\\C=C(/C)C(=O)NC(=CC1=O)C2=O", "note": "[Tanespimycin] + COc1ccc(-c2ccc3c(N4CCOCC4)nc(N4C[C@@H](C)O[C@@H](C)C4)nc3n2)cc1CO [KU0063794] (first compound 0.01 µM, partner dose 0.1 µM)", "cell count": 49.7}, {"smiles": "CN1CCN(c2ccc3nc(-c4c(N)c5c(F)cccc5[nH]c4=O)[nH]c3c2)CC1", "note": "[Dovitinib] + COc1cc2ncnc(Nc3ccc(Oc4ccccc4)cc3)c2cc1OC [SrcI1] (first compound 0.5 µM, partner dose 10 µM)", "cell count": 39.6}, {"smiles": "C=CCNC1=C2C[C@@H](C)C[C@H](OC)[C@H](O)[C@@H](C)/C=C(\\C)[C@H](OC(N)=O)[C@@H](OC)/C=C\\C=C(/C)C(=O)NC(=CC1=O)C2=O", "note": "[Tanespimycin] + O=c1cc(-c2cccc3c2Sc2ccccc2S3)oc(N2CCOCC2)c1 [KU55933] (first compound 0.01 µM, partner dose 5 µM)", "cell count": 59.7}, {"smiles": "C=CCNC1=C2C[C@@H](C)C[C@H](OC)[C@H](O)[C@@H](C)/C=C(\\C)[C@H](OC(N)=O)[C@@H](OC)/C=C\\C=C(/C)C(=O)NC(=CC1=O)C2=O", "note": "[Tanespimycin] + COc1ccc(COc2ccc(Cc3cnc(N)nc3N)cc2OC)cc1 [GW2580] (first compound 0.01 µM, partner dose 5 µM)", "cell count": 94}, {"smiles": "CNC(=O)c1cc(Oc2ccc(NC(=O)Nc3ccc(Cl)c(C(F)(F)F)c3)cc2)ccn1", "note": "[sorafenib] + N#Cc1c(O)c2c(-c3ccc(-c4ccccc4O)cc3)csc2[nH]c1=O [A769662] (first compound 2 µM, partner dose 10 µM)", "cell count": 88.1}, {"smiles": "CN1CCN(c2ccc3nc(-c4c(N)c5c(F)cccc5[nH]c4=O)[nH]c3c2)CC1", "note": "[Dovitinib] + O=C1NC(=O)/C(=C/c2ccc(-c3ccc(F)cc3O)o2)S1 [AS252424] (first compound 0.5 µM, partner dose 5 µM)", "cell count": 48.1}, {"smiles": "CNC(=O)c1cc(Oc2ccc(NC(=O)Nc3ccc(Cl)c(C(F)(F)F)c3)cc2)ccn1", "note": "[sorafenib] + O=C(O)C(=O)Nc1sc2c(c1C(=O)O)CCNC2 [TCS401] (first compound 2 µM, partner dose 8.33333 µM)", "cell count": 87.6}, {"smiles": "C[C@@H](Oc1cc(-c2cnn(C3CCNCC3)c2)cnc1N)c1c(Cl)ccc(F)c1Cl", "note": "[Crizotinib] + COc1cc2ncnc(Nc3ccc(Oc4ccccc4)cc3)c2cc1OC [SrcI1] (first compound 1 µM, partner dose 10 µM)", "cell count": 66.8}, {"smiles": "CS(=O)(=O)CCNCc1ccc(-c2ccc3ncnc(Nc4ccc(OCc5cccc(F)c5)c(Cl)c4)c3c2)o1", "note": "[lapatinib] + Oc1nc(-c2ccc(C(F)(F)F)cc2)nc2c1CSCC2 [XAV939] (first compound 4 µM, partner dose 10 µM)", "cell count": 95.8}, {"smiles": "C=CCNC1=C2C[C@@H](C)C[C@H](OC)[C@H](O)[C@@H](C)/C=C(\\C)[C@H](OC(N)=O)[C@@H](OC)/C=C\\C=C(/C)C(=O)NC(=CC1=O)C2=O", "note": "[Tanespimycin] + O=C(O)C(=O)Nc1sc2c(c1C(=O)O)CCNC2 [TCS401] (first compound 0.01 µM, partner dose 8.33333 µM)", "cell count": 52.2}, {"smiles": "C=CCNC1=C2C[C@@H](C)C[C@H](OC)[C@H](O)[C@@H](C)/C=C(\\C)[C@H](OC(N)=O)[C@@H](OC)/C=C\\C=C(/C)C(=O)NC(=CC1=O)C2=O", "note": "[Tanespimycin] + Oc1nc(-c2ccc(C(F)(F)F)cc2)nc2c1CSCC2 [XAV939] (first compound 0.01 µM, partner dose 10 µM)", "cell count": 67.6}, {"smiles": "CNC(=O)c1cc(Oc2ccc(NC(=O)Nc3ccc(Cl)c(C(F)(F)F)c3)cc2)ccn1", "note": "[sorafenib] + CCc1ccc(CCOc2ccc(CC3SC(=O)NC3=O)cc2)nc1 [pioglitazone] (first compound 2 µM, partner dose 10 µM)", "cell count": 96.4}, {"smiles": "C[C@@H](Oc1cc(-c2cnn(C3CCNCC3)c2)cnc1N)c1c(Cl)ccc(F)c1Cl", "note": "[Crizotinib] + O=S(=O)(c1ccccc1)N(CC(F)(F)F)c1ccc(C(O)(C(F)(F)F)C(F)(F)F)cc1 [T0901317] (first compound 1 µM, partner dose 7 µM)", "cell count": 51.2}, {"smiles": "CN1CCN(c2ccc3nc(-c4c(N)c5c(F)cccc5[nH]c4=O)[nH]c3c2)CC1", "note": "[Dovitinib] + O=C(O)C(=O)Nc1sc2c(c1C(=O)O)CCNC2 [TCS401] (first compound 0.5 µM, partner dose 8.33333 µM)", "cell count": 70.6}, {"smiles": "CS(=O)(=O)CCNCc1ccc(-c2ccc3ncnc(Nc4ccc(OCc5cccc(F)c5)c(Cl)c4)c3c2)o1", "note": "[lapatinib] + N#Cc1c(O)c2c(-c3ccc(-c4ccccc4O)cc3)csc2[nH]c1=O [A769662] (first compound 4 µM, partner dose 10 µM)", "cell count": 106}]}]}
